# According to the supplement of paper PMC10600219:
# Counter-ions that a name gives are not always drawn. Over roughly 2,800 compounds, “cell viability relative to vehicle” has its median near 1.1; the lowest 2% begin near 0.19. The list shows a part of the results.
# Test system: NCI-H2228 parental
# Experiment: cell viability relative to vehicle (fraction of vehicle); NCI-H2228 is an ALK-positive lung cancer line and DTP means drug-tolerant persister; higher = less growth inhibition
# Conditions: 100 nM; treatment time 6 days
# Method in brief: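 Parental NCI-H2228 cells and drug-tolerant persister cells (made with 1000 nM of a targeted drug for 13 days) were seeded in 384-well plates. The next day, the 3114-agent TargetMol anti-cancer compound library was added at 100 nM, with DMSO as vehicle. After 6 days, ATP was read with the CellTiter-Glo 3D Cell Viability Assay. Each value is cell viability relative to vehicle-treated cells.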
row,SMILES,cell viability
1,N#Cc1ccc(-c2csc(NN=C3CCCC3)n2)cc1 [Remodelin hydrobromide],1.07
2,O=C(/C=C/c1ccc(O)cc1)c1ccc(O)cc1O [Isoliquiritigenin],1.21
3,CS(=O)(=O)OCCCCOS(C)(=O)=O [Busulfan],0.927
4,O=C(Nc1ccccc1)C12CC1C(=NO)c1ccccc1O2 (configuration not stated),1.02
5,N#CCNC(=O)c1ccc(-c2ccnc(Nc3ccc(N4CCOCC4)cc3)n2)cc1 [Momelotinib],0.984
6,Cc1ccc(C(=O)Nc2ccc(Oc3cc4cnn(C)c4cc3-c3cn[nH]c3)c(F)c2)c(=O)n1-c1ccc(F)cc1 [Merestinib],1.16
7,OCc1c[nH]c2ccccc12 [Indole-3-carbinol],1.11
8,CC(C)(CO)c1cc2cc(NC(=O)C3(c4ccc5c(c4)OC(F)(F)O5)CC3)c(F)cc2n1C[C@@H](O)CO,1.12
9,CN1C(=O)CC[C@H]1c1cccnc1 [(-)-Cotinine],1.13
10,Cc1c(CN2CCN(C(=O)[C@H](C)O)CC2)sc2c(N3CCOCC3)nc(-c3cnc(N)nc3)nc12 [Apitolisib],0.524
11,CN1CCc2c(c3ccccc3n2Cc2ccc(C(=O)NO)cc2)C1 [Tubastatin A HCl],1.02
12,Oc1ccc(C(c2c[nH]c3ccccc23)c2c[nH]c3ccccc23)cc1,1.06
13,CC[C@@H]1C(=O)OC[C@@H]1Cc1cncn1C [Pilocarpine nitrate],1.04
14,CC[C@@H]1C(=O)OC[C@@H]1Cc1cncn1C [(+)-Pilocarpine hydrochloride],1.14
15,COc1nc(OCc2cccc(-c3ccccc3)c2C)ccc1CNCCNC(C)=O [PD1-PDL1 inhibitor 2],1.11
16,CNc1cc(-c2cccc(Cl)c2Cl)nc(N)n1 [TH287 hydrochloride],1.09
17,CCC(C)(Oc1ccc(C2(c3ccc(OC(C)(CC)C(=O)O)cc3)CCCCC2)cc1)C(=O)O (configuration not stated) [Clinofibrate],1.12
18,COc1ccc(S(=O)(=O)N[C@@H](CNc2nc(C)nc(N3CCC(c4ccc5c(n4)NCCC5)CC3)c2C)C(=O)O)cc1,0.705
19,"CC(C)=CCC(OC(=O)C=C(C)C)C1=CC(=O)c2c(O)ccc(O)c2C1=O (stereo not drawn) [beta, beta-dimethylacrylshikonin]",1.03
20,COc1cc2nccc(Oc3ccc(NC(=O)NC4CC4)c(Cl)c3)c2cc1C(N)=O [Lenvatinib],1.17
21,c1nc2c(NC3CCCCC3)nc(Nc3ccc(N4CCOCC4)cc3)nc2[nH]1 [Reversine],1.02
22,CC(=O)c1cc2c(o1)C(=O)c1ccccc1C2=O [Napabucasin],0.953
23,"CC(=O)c1ccc(O)c(O)c1 [3',4'-Dihydroxyacetophenone]",1.13
24,CCN(CC)CC(=O)Nc1c(C)cccc1C [Xylocaine],1.09
25,c1ccc2c(CC3=NCCN3)cccc2c1 [Naphazoline hydrochloride],1.12
26,COc1cc(N2CCN(C)CC2)ccc1Nc1ncc2c(n1)N(C)c1ccccc1C(=O)N2,0.997

row,SMILES,cell viability
1,O=c1oc2c(O)c(O)cc3c(=O)oc4c(O)c(O)cc1c4c23 [Ellagic acid],1.12
2,CC(C)COc1ccc(CNC(=O)N(Cc2ccc(F)cc2)C2CCN(C)CC2)cc1 [Pimavanserin tartrate],1.13
3,CC(C)COc1ccc(CNC(=O)N(Cc2ccc(F)cc2)C2CCN(C)CC2)cc1 [Pimavanserin],1.16
4,CN(c1ccccc1CNc1nc(Nc2ccc3c(c2)CC(=O)N3)ncc1C(F)(F)F)S(C)(=O)=O,1.16
5,S=C(S)N1CCCC1 [Pyrrolidinedithiocarbamate ammonium],1.17
6,Cc1ccc(S(=O)(=O)Cc2nc(-c3ccc(C(=O)NCc4cccnc4)cc3)oc2C)cc1,0.875
7,CC/C(=C(\c1ccc(O)cc1)c1ccc(OCCNC)cc1)c1ccccc1 [(E/Z)-Endoxifen],1.17
8,CCn1cc(C(=O)O)c(=O)c2c(N)c(F)c(NC3CCCCC3)cc21,1.16
9,COc1cc(-c2oc3cc(O)cc(O)c3c(=O)c2O)ccc1O [Isorhamnetin],1.13
10,Cc1cc(Cn2nnc3c(-c4ccco4)nc(N)nc32)ccc1N [Vipadenant],1.13
11,CONC(=O)Nc1ccc(-c2sc3c(c2CN(C)C)c(=O)n(-c2ccc(OC)nn2)c(=O)n3Cc2c(F)cccc2F)cc1 [Relugolix],1.05
12,COc1cccc2c1C(=O)c1c(O)c3c(c(O)c1C2=O)C[C@@](O)(C(C)=O)C[C@@H]3O[C@H]1C[C@H](N)[C@H](O)[C@H](C)O1 [Daunorubicin hydrochloride],0.263
13,CNC(=O)c1cc(Oc2ccc(NC(=O)Nc3ccc(Cl)c(C(F)(F)F)c3)cc2)ccn1 [Sorafenib tosylate],1.16
14,CNC(=O)c1cc(Oc2ccc(NC(=O)Nc3ccc(Cl)c(C(F)(F)F)c3)cc2)ccn1 [Sorafenib],1.05
15,CNC(=O)c1ccccc1Nc1cc(Nc2ccc(N3CCOCC3)cc2OC)ncc1C(F)(F)F,0.783
16,OCc1ccccc1O[C@@H]1O[C@H](CO)[C@@H](O)[C@H](O)[C@H]1O [Salicoside],1.09
17,C=CC1=C(C(=O)O)N2C(=O)[C@@H](NC(=O)/C(=N\O)c3csc(N)n3)[C@H]2SC1 [Cefdinir],1.13
18,CC(=O)NS(=O)(=O)c1ccc(N)cc1 [Sulfacetamide sodium salt hydrate],1.1
19,Cc1cn([C@H]2C=C[C@@H](CO)O2)c(=O)[nH]c1=O [Stavudine],1.3
20,C=C1CC[C@@H]2[C@](C)(CO)[C@H](O)CC[C@@]2(C)[C@@H]1C/C=C1/C(=O)OC[C@H]1O [Andrographolide],1.02
21,Cc1c(-c2cnccn2)ssc1=S [Oltipraz],1.06
22,COc1ccc(-n2c(SCCCN3C(=O)c4cccc5cccc(c45)C3=O)nnc2-c2ccncc2)cc1,0.744
23,C[C@@H]1C[C@H]2[C@@H]3CCC4=CC(=O)C=C[C@]4(C)[C@@]3(F)[C@@H](O)C[C@]2(C)[C@@]1(O)C(=O)COP(=O)(O)O [Dexamethasone Sodium Phosphate],0.778
24,Cc1cccc(CC(=O)N2CCc3c2ccc(-c2cn(C)c4ncnc(N)c24)c3F)n1,1.08
25,CCn1c2ccccc2c2cc(CNCc3ccccc3OC)ccc21 [HLCL-61 hydrochloride],1.15
26,CC[C@H](CO)Nc1nc(NCc2ccccc2)c2ncn(C(C)C)c2n1 [Roscovitine],0.932

row,SMILES,cell viability
1,OCCN(CCO)c1nc(N2CCCCC2)c2nc(N(CCO)CCO)nc(N3CCCCC3)c2n1 [Dypyridamole],0.997
2,CN(c1nccc(=O)[nH]1)C1CCN(c2nc3ccccc3n2Cc2ccc(F)cc2)CC1 [Mizolastine],1.12
3,CC[C@@H](C)Nc1cc(C(=O)N[C@H]2C[C@H]3CC[C@@H](C2)N3c2ccc(C(=O)C3CC3)cn2)c(C)cc1C(N)=O,0.256
4,CC(=O)OC(C)OC(=O)C(C)c1ccc(-c2ccccc2)c(F)c1 (configuration not stated) [Flurbiprofen Axetil],1.13
5,Cc1ccc(F)c(NC(=O)Nc2ccc(-c3cccc4[nH]nc(N)c34)cc2)c1 [Linifanib],1
6,C[C@]12CC[C@@H]3c4ccc(OC(=O)c5ccccc5)cc4CC[C@H]3[C@@H]1CC[C@@H]2O [Estradiol benzoate],1.15
7,O=C[C@H](O)[C@@H](O)[C@H](O)[C@H](O)CO[C@H]1O[C@H](CO[C@H]2O[C@H](CO)[C@H](O)[C@H](O)[C@H]2O)[C@H](O)[C@H](O)[C@H]1O [Manninotriose],1.11
8,CC(C)(C)[N+]([O-])=Cc1ccc(S(=O)(=O)O)cc1S(=O)(=O)O,1.06
9,CC(=O)OC(C)(C)CCC(=O)[C@](C)(O)[C@H]1[C@H](O)C[C@@]2(C)[C@@H]3CC=C4[C@@H](C[C@H](O)[C@@H](O)C4(C)C)[C@]3(C)C(=O)C[C@]12C [Cucurbitacin IIA],1.03
10,O=C(/C=C\n1cnc(-c2cc(C(F)(F)F)cc(C(F)(F)F)c2)n1)N1CC(F)(F)C1,0.514
11,CN(CCNc1ccnc2cc(Cl)ccc12)CCNc1ccnc2cc(Cl)ccc12,1.11
12,CC(C)OC(=O)C1=CN(C(=O)c2ccc(F)c(F)c2)CC(C)(C)c2c1[nH]c1ccccc21 [Turofexorate Isopropyl],0.951
13,Clc1ccc(C(c2c[nH]c3ccccc23)c2c[nH]c3ccccc23)cc1,1.01
14,O=C(Nc1ccncc1)c1cc([N+](=O)[O-])ccc1Cl,1.09
15,CCCCCCNC(=O)Nc1ccc(S(=O)(=O)Nc2ccc(CCNC[C@H](O)COc3ccc(O)cc3)cc2)cc1,1.16
16,COCCCN1CCC(NC(=O)c2cc(Cl)c(N)c3c2OCC3)CC1 [Prucalopride],1.18
17,Cn1c(-c2ccccc2C(F)(F)F)nnc1C12CCC(c3noc(C4CC(F)(F)C4)n3)(CC1)CC2,1.16
18,CC(C)(O)CNc1ncc(-c2ccnc(Nc3ccnc(Cl)c3)n2)c(CC2CC2)n1,0.891
19,CNc1nc(Nc2cn(C(C)(C)C#N)nc2C)ncc1C(F)(F)F,1.07
20,C=CC(=O)N1C/C(=C\c2ccc([N+](=O)[O-])cc2)C(=O)/C(=C/c2ccc([N+](=O)[O-])cc2)C1,0.992
21,Cc1cc(CN2CCN(c3c(Br)cnc4nc(-c5ccc(N6CCN(C)CC6)cc5)[nH]c34)CC2)no1,1.04
22,CCOC(=O)/C=C/c1ccc(O)c(O)c1 [Ethyl caffeate],1.03
23,NC(=O)c1ccc(OCCCN2CC3CCCC3C2)cc1 (configuration not stated),1.17
24,COc1ccc(C2CC(=O)c3c(O)cc(OC4OC(COC5OC(C)C(O)C(O)C5O)C(O)C(O)C4O)cc3O2)cc1OC (configuration not stated) [Methyl hesperidin],0.998
25,O=C(Oc1cc(S(=O)(=O)c2ccccc2)ccc1[N+](=O)[O-])c1ccc(Cl)cc1,1.07
